Laboratory results reported in the supplement of paper PMC3334620.
Whole data set: some 33,000 sequences, median “E-score (-0.5 to 0.5)” near -0.054, cut for the highest 2% near 0.35. The list shows a part of the results.

Molecular target: T1, Stb5 (UniProt P38699)
T1 sequence: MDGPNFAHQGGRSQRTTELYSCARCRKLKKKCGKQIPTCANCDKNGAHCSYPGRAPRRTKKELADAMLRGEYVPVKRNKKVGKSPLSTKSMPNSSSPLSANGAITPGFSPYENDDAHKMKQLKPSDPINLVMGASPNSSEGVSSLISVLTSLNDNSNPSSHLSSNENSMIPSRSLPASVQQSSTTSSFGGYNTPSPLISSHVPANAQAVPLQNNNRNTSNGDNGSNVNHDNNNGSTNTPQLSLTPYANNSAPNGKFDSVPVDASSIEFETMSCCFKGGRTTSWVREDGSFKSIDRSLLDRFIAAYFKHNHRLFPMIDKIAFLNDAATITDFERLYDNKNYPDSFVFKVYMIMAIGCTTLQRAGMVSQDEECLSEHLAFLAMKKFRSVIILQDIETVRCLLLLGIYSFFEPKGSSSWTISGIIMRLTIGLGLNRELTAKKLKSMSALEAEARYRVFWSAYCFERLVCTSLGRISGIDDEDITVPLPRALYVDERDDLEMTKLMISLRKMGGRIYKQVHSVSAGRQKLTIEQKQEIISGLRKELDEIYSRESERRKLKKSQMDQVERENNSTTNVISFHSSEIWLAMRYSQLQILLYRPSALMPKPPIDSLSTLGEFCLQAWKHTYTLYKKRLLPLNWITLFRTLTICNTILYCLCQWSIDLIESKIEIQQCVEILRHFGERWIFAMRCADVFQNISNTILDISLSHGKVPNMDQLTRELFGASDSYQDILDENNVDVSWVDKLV
Assay: PBM E-score (8-mer binding enrichment) (E-score (-0.5 to 0.5)); higher = stronger / more preferred TF binding; most listed sequences are background and not binding sites
Conditions: protein concentration: 200 nM; construct: GST-full length
Method in brief: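 Yeast transcription factors, full-length or as DNA-binding domains, were expressed with a GST tag using PURExpress in vitro transcription/translation. At about 100-200 nM they were applied to universal all-10-mer Agilent arrays, double-stranded by primer extension on fresh or once-stripped slides. Fluorescent anti-GST detected bound protein, and masliner normalised the scans. E-scores for ungapped eight-base words, pooled with reverse complements, came from the Universal PBM Analysis Suite.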

Sequence	PBM E-score
AGTCCACG	0.0828
CACATTCG	-0.0522
ATCGGTGA	0.366
CCGTTATC	0.186
AGCGAAGG	-0.0665
CTCCCTAA	-0.259
AATGCTCA	-0.362
GACGGTAC	0.312
CAGATCTA	-0.154
CACCATGA	0.077
ATCACATA	-0.0836
CGCCCCTC	0.0818
CACGGGTC	0.0592
GGATTCCA	-0.0341
GATGAGCC	-0.0885
GGCTTCCA	-0.0805
ATGATAAC	-0.113
AGGTATGA	0.00378
ATGCAACG	-0.0435
ACAACGTC	0.00369
ATCGCCCG	0.0987
ACCGGTCA	0.227

Sequence	PBM E-score
CCAGAACG	-0.0165
AGCAGGCT	-0.16
CTGACTTA	-0.06
ACTTCTCT	-0.252
AATTGCCC	0.0559
CTTACATC	-0.0854
TACCGTGA	0.239
GAGACGGA	0.307
CTTGAGTC	-0.164
ATAGAGCG	0.0868
ATGGTGCA	-0.0962
ACTGTCAA	-0.249
CACCGGTA	0.408
TATTCGAA	-0.238
CAGCTGTA	-0.131
ACGGCTCG	0.0784
GTCAACAC	-0.0628
CAGAAAAC	-0.185
CTAGTCCC	0.152
AATGTACT	-0.125
CAACAGAC	-0.0679
TGACGGCA	0.276

Sequence	PBM E-score
CACTGGTA	-0.18
CCATCGTC	-0.0812
ATCACTAG	-0.114
GGTACACC	0.0506
AATAGAAT	-0.187
GAGTCCAA	-0.182
GTACGCAC	-0.15
CCTGTACG	-0.0482
AGTGTCGG	0.341
CACGTCGG	0.341
CAATCGGA	0.311
GACGTATA	0.0282
ACGTCAGT	-0.218
CACGCCAA	-0.28
ATAAAAGC	-0.0068
GATGAGGC	-0.144
AGTGGTTC	-0.131
TTACCAAA	0.047
GGGAGATA	-0.00859
AGTATGAT	-0.231
TCATCGAA	-0.0757
CCGATCGC	0.223

Sequence	PBM E-score
CGAACACA	-0.00887
AGAGAATC	-0.19
GGCGAGCA	-0.114
CCGGTGAG	0.144
GTCTAAAA	-0.00511
ACGTTTTG	-0.318
CGCGGTTA	0.37
AAAGGTGA	-0.00033
GGATTGCA	-0.0987
GATGATAC	0.148
TACATACA	-0.228
ATAAACGG	0.22
AGAAAAGG	-0.103
GCTAATAA	-0.00014
ACCGTAGG	0.254
CACCCCTG	-0.154
AATCGTCA	-0.0811
GCCCGCGC	0.317
CAGGCAGG	-0.235
AATCGTGA	0.0225
CCTATCCG	-0.109
CGGCGACG	0.194

Sequence	PBM E-score
CGCGTTAA	0.107
CTCAGTCC	-0.0145
CAACCATA	-0.171
CGCGTGCA	-0.102
CGAATCAA	0.0248
CCGTGTAG	-0.071
GCGTAAGC	0.0141
CAGCTATA	0.0381
CGCTAAGA	0.0527
ATGCATAG	-0.228
GAAGCGCA	0.0833
GCCTCTAC	-0.118
ATAAGTTA	-0.0389
GGTAATAC	0.327
AGGGTCAA	-0.2
CCAGCAGC	-0.12
ACCGATAA	0.338
AGCCCTTA	-0.157
GTCGTAAC	-0.0598
CTGTAGTC	-0.0251
ACTAGCAG	-0.334
AGCTCTAC	-0.243
